# According to article PMC4336329 (PLoS ONE, 2015):
# Hit rate of the full screen: of about 310,000 compounds, about 14,000 (4.5%) showed an effect of 50% or more. Effects have a minus sign here. Some of the results follow.
# Molecular target: human ether-à-go-go-related gene (hERG) potassium channel (human, UniProt Q12809)
# Test: primary screen, population patch clamp on CHO cells stably expressing hERG
# 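Also: peak tail current of the secondary pulse compared with the same well before compound.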
# Chain of human ether-à-go-go-related gene (hERG) potassium channel (Q12809 whole entry, looked up): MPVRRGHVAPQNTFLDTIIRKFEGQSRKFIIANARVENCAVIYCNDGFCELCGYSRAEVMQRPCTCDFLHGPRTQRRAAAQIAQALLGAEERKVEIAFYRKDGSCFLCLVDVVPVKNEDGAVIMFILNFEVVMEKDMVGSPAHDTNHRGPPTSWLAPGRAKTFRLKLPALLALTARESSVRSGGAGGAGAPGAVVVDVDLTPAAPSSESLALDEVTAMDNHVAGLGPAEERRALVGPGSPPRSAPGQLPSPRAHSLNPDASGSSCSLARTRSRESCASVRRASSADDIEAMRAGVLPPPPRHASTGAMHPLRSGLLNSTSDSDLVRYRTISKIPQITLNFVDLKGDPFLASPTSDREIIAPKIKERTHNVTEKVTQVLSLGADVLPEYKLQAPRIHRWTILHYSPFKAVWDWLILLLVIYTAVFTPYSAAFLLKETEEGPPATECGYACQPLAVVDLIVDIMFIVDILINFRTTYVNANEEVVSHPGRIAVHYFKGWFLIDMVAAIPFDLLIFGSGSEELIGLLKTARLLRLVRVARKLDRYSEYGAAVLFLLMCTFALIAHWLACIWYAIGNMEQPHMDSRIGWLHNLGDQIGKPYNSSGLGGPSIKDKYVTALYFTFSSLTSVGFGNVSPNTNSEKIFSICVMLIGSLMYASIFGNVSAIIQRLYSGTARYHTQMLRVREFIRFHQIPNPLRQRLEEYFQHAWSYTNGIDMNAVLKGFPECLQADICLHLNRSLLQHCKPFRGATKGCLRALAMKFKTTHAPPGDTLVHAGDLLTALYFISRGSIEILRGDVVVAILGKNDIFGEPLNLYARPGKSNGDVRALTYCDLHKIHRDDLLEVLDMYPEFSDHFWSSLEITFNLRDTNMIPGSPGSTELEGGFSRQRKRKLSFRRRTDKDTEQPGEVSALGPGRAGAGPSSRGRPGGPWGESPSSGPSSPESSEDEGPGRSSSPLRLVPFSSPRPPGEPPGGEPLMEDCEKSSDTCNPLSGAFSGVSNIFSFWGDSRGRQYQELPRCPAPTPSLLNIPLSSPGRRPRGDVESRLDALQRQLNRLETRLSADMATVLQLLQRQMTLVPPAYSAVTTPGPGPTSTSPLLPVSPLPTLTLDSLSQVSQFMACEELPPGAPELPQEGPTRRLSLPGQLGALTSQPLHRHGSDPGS
row,SMILES,"hERG current change (%, negative = inhibition) at 10uM [%]"
1,O=C(NCc1ccco1)c1cc(-c2ccccc2)c(N2CCOCC2)s1,-4.63
2,CCOC(=O)c1c(N)sc2c(OCC)c(Br)ccc12,19.1
3,O=C(CCn1c2c(c3ccccc31)CCCC2)NNC(=O)c1ccccc1C(=O)O,12.7
4,Cc1c(C(=O)Nc2ccccc2)cc(-c2ccccc2)n1CCCN1CCOCC1,-22.1
5,CN(Cc1ccccc1)c1ccc(C(CC(N)=O)NC(=O)Cc2ccc(Br)cc2)cc1[N+](=O)[O-] (stereo not drawn),10
6,CCOC(=O)c1cccc(NC(=O)/C=C/c2ccc3c(c2)OCO3)c1,-2.84
7,O=C(O)CCCNC(=O)c1cncc(O)c1,-13.5
8,O=C(/C=C/c1cccs1)Nc1cccnc1,-28.5
9,CCOC(=O)Cc1cc(-c2ccc(OC)cc2)nc2ccc3ccccc3c12,-3.38
10,Cc1ccc(C)n1/N=C1/NC(=O)CS1,-4.04
11,CCCCn1c(C)c(C(=O)OCC)c2c(CN3CCCC3)c(O)ccc21,-72
12,Cc1cc(N2CCOCC2)n2nc(C)c(-c3ccc(Cl)cc3)c2n1,8.58
13,CCN(CC(=O)Nc1ccccc1C(F)(F)F)C(=O)c1cc2c(s1)CCCCC2,-24.3
14,Cc1nc(Nc2ccc(Cl)cc2)c(C#N)c(=O)[nH]1,11.3
15,CC(=O)c1c(COC(=O)c2ccc(F)cc2)nc2ccccc2[n+]1[O-],10.6
16,CC(C)C(=O)NC(Nc1cccc2cccnc12)C(Cl)(Cl)Cl (stereo not drawn),-17.8
17,CCC(=O)Nc1cc2[nH]c(=O)cc(C)c2cc1C,33.3
18,COc1ccc(S(=O)(=O)NCc2ccc3c(c2)OCO3)cc1C(=O)O,22.5
19,CC(C)N1C(=O)CCC1C(=O)NCc1ccco1 (stereo not drawn),-3.4
20,COc1ccc(C2OCC3(CO2)SC(N)=NC3=O)cc1 (stereo not drawn),-1.61
21,C[C@@H](C(=O)Nc1ccc2ccccc2c1)[C@@H]1C[C@@]1(C)[C@@H](N)c1ccccc1.Cl,-1.94
22,Cc1ccc(/C=C/C(=O)OCC(=O)NC(=O)NCc2ccco2)cc1,18.7
23,Cc1ccc(NC(=O)CCN2CCOCC2)cc1C,14.1

row,SMILES,"hERG current change (%, negative = inhibition) at 10uM [%]"
1,Cc1ccc(C(C)(c2ccc(N)cc2)c2ccc(N)cc2)cc1,-1.66
2,CCN1CCN(C(=O)CCS(=O)(=O)c2cc3c(cc2Cl)NC(=O)CO3)CC1,11.7
3,FC(F)(F)c1nnc(Nc2ccc(Cl)cc2)s1,9.02
4,COc1ccc(-c2cc(C(F)(F)F)nc(SCC(=O)N(C)Cc3cn(C)nc3C)n2)cc1OC,-36.2
5,CC1CCCN(S(=O)(=O)c2ccc(NC(=O)CN3CCN(C)CC3)cc2)C1.Cl (stereo not drawn),-17.8
6,O=c1c2c3c(sc2n(CCN2CCCCC2)c(=O)n1Cc1ccco1)CCCCC3,-69.1
7,Cc1cccc(C)c1NC1=NCCCCC1,14.8
8,Fc1cccc(NC(=S)NCc2ccc(Cl)cc2)c1,14.4
9,CCCNC(=S)Nc1ccc(Cl)cc1Cl,7.89
10,CSc1cccc(NC(=O)CCn2c(=O)c3cccn3c3cccnc32)c1,7.74
11,CCCc1nc2ccccc2c(=O)n1/N=C/c1ccc(O)cc1O,0.651
12,Cc1ccc(NC(=O)CS(=O)CC(=O)NCC2CCCO2)cc1 (stereo not drawn),12.7
13,O=C(N/N=C/c1cccn1-c1cccc(C(=O)O)c1)Nc1ccccc1,2.66
14,CC(C)OC(=O)CSc1nc2cc3c(cc2cc1C#N)OCO3,18.1
15,C/C(=N\NS(=O)(=O)c1ccc([N+](=O)[O-])cc1)c1ccc(NC(=O)c2ccco2)cc1,5.33
16,CCN(CC)S(=O)(=O)c1ccc2c(c1)nc(SCn1nnc3ccccc3c1=O)n2CC,21.1
17,CCOC(=O)Oc1ccc2oc(=O)cc(C)c2c1,15.9
18,Cc1c(CBr)[n+](=O)c2c(n1[O-])C(Br)CCC2Br (stereo not drawn),22.8
19,CC(=O)Nc1ccc(NC(=O)Oc2ccccc2)cc1,17.3
20,COc1cc2sc(C)nc2c2sccc12,2.95
21,CCc1ccccc1NC(=O)CCCN1C(=O)c2cccnc2C1=O,7.97
22,O=C(Nc1ccc(Cl)cc1)NC1(C(=O)NCCCN2CCOCC2)CCCCC1,-0.834
